From the supplement of paper PMC4967469
Lines with a small IC50 respond at low doses; fits outside the tested doses are given as limits. AUC is the area under the same curve over the 256-fold range up to the top dose, as a fraction; the more sensitive the line, the further below 1. For some of these results: The top dose, if marked as inferred, is not printed in the source and was worked back from the curve model. For some of these results: An entry number marks a drug with two screens in the source, which often give different values.

Key:
Assay in all cases: Viability of human cancer cell lines after 72 h of drug (GDSC screen)
JQ1 = compound: Cc1sc2c(c1C)C(c1ccc(Cl)cc1)=N[C@@H](CC(=O)OC(C)(C)C)c1nnc(C)n1-2 [JQ1]
Procedure: (§1)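 Human cancer cell lines in 384-well plates, medium with 10% serum, drug for 72 h over a 256-fold dose range (nine 2-fold or five 4-fold steps up to the top dose). Adherent lines were fixed and stained with the nucleic acid dye Syto60, suspension lines read with resazurin; signal relative to control wells, capped at 0 and 100%. One two-parameter sigmoid per drug and line, fitted in a mixed model over all curves with the slope shared within a line.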

FTI-277 = compound: COC(=O)[C@H](CCSC)NC(=O)c1ccc(NC[C@@H](N)CS)cc1-c1ccccc1 [FTI-277]; conditions: top dose 1.024 µM; top dose inferred
Procedure: as §1

YM155 = compound: COCC[n+]1c2c(n(Cc3cnccn3)c1C)C(=O)c1ccccc1C2=O [YM155]; conditions: top dose 5.12 µM
Procedure: as §1

JNJ-26854165 = compound: c1ccc2c(CCNc3ccc(Nc4ccncc4)cc3)c[nH]c2c1 [JNJ-26854165]; conditions: top dose 10 µM
Procedure: as §1

NVP-TAE684 = compound: COc1cc(N2CCC(N3CCN(C)CC3)CC2)ccc1Nc1ncc(Cl)c(Nc2ccccc2S(=O)(=O)C(C)C)n1 [NVP-TAE684]; conditions: top dose 2 µM
Procedure: as §1

Cyclopamine = compound: CC1=C2C[C@H]3[C@@H](CC=C4C[C@@H](O)CC[C@@]43C)[C@@H]2CC[C@]12O[C@@H]1C[C@H](C)CN[C@H]1[C@H]2C [Cyclopamine]; conditions: top dose 16 µM; top dose inferred
Procedure: as §1

CGP-60474 = compound: OCCCNc1cc(-c2ccnc(Nc3cccc(Cl)c3)n2)ccn1 [CGP-60474]; conditions: top dose 0.256 µM; top dose inferred
Procedure: as §1

OSI-906 = compound: C[C@]1(O)C[C@@H](c2nc(-c3ccc4ccc(-c5ccccc5)nc4c3)c3c(N)nccn32)C1 [OSI-906]; conditions: top dose 2.56 µM; top dose inferred
Procedure: as §1

SB-715992 = compound: Cc1ccc(C(=O)N(CCCN)[C@@H](c2nc3cc(Cl)ccc3c(=O)n2Cc2ccccc2)C(C)C)cc1 [SB-715992]; conditions: top dose 0.128 µM; top dose inferred
Procedure: as §1

Docetaxel = compound: CC(=O)O[C@@]12CO[C@@H]1C[C@H](O)[C@@]1(C)C(=O)[C@H](O)C3=C(C)[C@@H](OC(=O)[C@H](O)[C@@H](NC(=O)OC(C)(C)C)c4ccccc4)C[C@@](O)([C@@H](OC(=O)c4ccccc4)[C@H]21)C3(C)C [Docetaxel]; conditions: top dose 0.0125 µM
Procedure: as §1

PHA-665752 = compound: Cc1[nH]c(/C=C2\C(=O)Nc3ccc(S(=O)(=O)Cc4c(Cl)cccc4Cl)cc32)c(C)c1C(=O)N1CCC[C@@H]1CN1CCCC1 [PHA-665752]; conditions: top dose 2 µM
Procedure: as §1

JNK Inhibitor VIII = compound: CCOc1nc(NC(=O)Cc2cc(OC)ccc2OC)cc(N)c1C#N [JNK Inhibitor VIII]; conditions: top dose 10 µM; top dose inferred
Procedure: as §1

Belinostat = compound: O=C(/C=C/c1cccc(S(=O)(=O)Nc2ccccc2)c1)NO [Belinostat]; conditions: top dose 20 µM; top dose inferred
Procedure: as §1

AMG-706 = compound: CC1(C)CNc2cc(NC(=O)c3cccnc3NCc3ccncc3)ccc21 [AMG-706]; conditions: top dose 2 µM; top dose inferred
Procedure: as §1

NSC-207895 = compound: CN1CCN(c2ccc([N+](=O)[O-])c3no[n+]([O-])c23)CC1 [NSC-207895]; conditions: top dose 20 µM; top dose inferred
Procedure: as §1

[1] = top dose 1 µM, screen: GDSC drug entry 1218, top dose inferred
[2] = top dose 2.56 µM, screen: GDSC drug entry 163

Cell Line	AUC (JQ1; [1])	IC50 (JQ1; [1])	AUC (JQ1; [2])	IC50 (JQ1; [2])	AUC (FTI-277)	IC50 (FTI-277)	AUC (YM155)	IC50 (YM155)	AUC (JNJ-26854165)	IC50 (JNJ-26854165)	AUC (NVP-TAE684)	IC50 (NVP-TAE684)	AUC (Cyclopamine)	IC50 (Cyclopamine)	AUC (CGP-60474)	IC50 (CGP-60474)	AUC (OSI-906)	IC50 (OSI-906)	AUC (SB-715992)	IC50 (SB-715992)	AUC (Docetaxel)	IC50 (Docetaxel)	AUC (PHA-665752)	IC50 (PHA-665752)	AUC (JNK Inhibitor VIII)	IC50 (JNK Inhibitor VIII)	AUC (Belinostat)	IC50 (Belinostat)	AUC (AMG-706)	IC50 (AMG-706)	AUC (NSC-207895)	IC50 (NSC-207895)
SIMA (neuroblastoma, adherent)	0.954	> 1000 nM	0.734	822 nM	0.982	> 1020 nM	0.574	523 nM	0.924	> 10 µM	0.98	> 2000 nM	0.965	> 16 µM	0.891	> 256 nM	0.768	1090 nM	0.9	> 128 nM	0.902	> 12.5 nM	0.957	> 2000 nM	0.985	> 10 µM	0.567	1950 nM	0.961	> 2000 nM	0.915	> 20 µM
LB1047-RCC (kidney, adherent)	0.979	> 1000 nM	0.86	> 2560 nM	0.967	> 1020 nM	0.092	< 20 nM	0.757	3.85 µM	0.76	789 nM	0.962	> 16 µM	0.568	25.1 nM	0.798	1400 nM	0.963	> 128 nM	0.858	12.5 nM	0.93	> 2000 nM	0.904	> 10 µM	0.361	491 nM	0.813	1250 nM	0.929	> 20 µM
NB14 (neuroblastoma, adherent)	0.988	> 1000 nM	0.612	319 nM	0.983	> 1020 nM	–	–	0.824	5.48 µM	0.662	343 nM	0.982	> 16 µM	0.922	> 256 nM	0.769	910 nM	0.883	123 nM	0.506	0.812 nM	0.956	> 2000 nM	0.948	> 10 µM	–	–	0.927	> 2000 nM	0.985	> 20 µM
NCI-H345 (small cell lung carcinoma, suspension)	0.989	> 1000 nM	0.99	> 2560 nM	0.99	> 1020 nM	0.048	< 20 nM	0.983	> 10 µM	0.973	> 2000 nM	0.99	> 16 µM	0.848	206 nM	0.99	> 2560 nM	0.988	> 128 nM	0.986	> 12.5 nM	0.99	> 2000 nM	0.989	> 10 µM	0.378	565 nM	0.988	> 2000 nM	0.879	> 20 µM
BB49-HNC (head and neck, adherent)	0.969	> 1000 nM	0.832	> 2560 nM	0.975	> 1020 nM	0.466	250 nM	0.847	> 10 µM	0.939	> 2000 nM	0.977	> 16 µM	0.7	74.6 nM	0.806	1990 nM	0.97	> 128 nM	0.659	2.59 nM	0.95	> 2000 nM	0.975	> 10 µM	0.703	5950 nM	0.973	> 2000 nM	0.952	> 20 µM
MPP-89 (mesothelioma, adherent)	0.978	> 1000 nM	0.899	> 2560 nM	0.98	> 1020 nM	0.648	935 nM	0.872	> 10 µM	0.691	508 nM	0.936	> 16 µM	0.742	99.7 nM	0.918	> 2560 nM	0.959	> 128 nM	0.679	2.91 nM	0.966	> 2000 nM	0.971	> 10 µM	0.223	147 nM	0.972	> 2000 nM	0.902	> 20 µM
NMC-G1 (glioma, adherent)	–	–	–	–	0.943	> 1020 nM	0.055	< 20 nM	0.814	7.09 µM	0.74	726 nM	0.981	> 16 µM	0.599	31.8 nM	0.819	1900 nM	0.895	> 128 nM	0.472	0.644 nM	0.98	> 2000 nM	0.981	> 10 µM	0.525	1480 nM	0.982	> 2000 nM	0.927	> 20 µM
WSU-NHL (lymphoid neoplasm, suspension)	0.989	> 1000 nM	0.837	1430 nM	0.986	> 1020 nM	0.113	22.6 nM	0.851	6.29 µM	0.94	> 2000 nM	0.989	> 16 µM	0.958	> 256 nM	0.915	> 2560 nM	0.865	91.6 nM	–	–	0.99	> 2000 nM	0.99	> 10 µM	0.414	749 nM	0.99	> 2000 nM	0.99	> 20 µM
NB1 (neuroblastoma, semi-adherent)	0.982	> 1000 nM	0.835	1940 nM	0.971	> 1020 nM	0.346	114 nM	0.892	> 10 µM	0.094	< 7.81 nM	0.972	> 16 µM	0.723	73.8 nM	0.917	> 2560 nM	–	–	0.798	6.68 nM	0.98	> 2000 nM	0.97	> 10 µM	0.816	12500 nM	0.963	> 2000 nM	0.87	> 20 µM
LNCaP-Clone-FGC (prostate, adherent)	0.977	> 1000 nM	0.726	778 nM	0.979	> 1020 nM	0.143	< 20 nM	0.63	1.5 µM	0.935	> 2000 nM	0.972	> 16 µM	0.94	> 256 nM	0.973	> 2560 nM	0.767	54.3 nM	–	–	0.967	> 2000 nM	0.981	> 10 µM	0.203	142 nM	0.982	> 2000 nM	0.914	> 20 µM
LS-123 (large intestine, adherent)	0.972	> 1000 nM	0.918	> 2560 nM	0.976	> 1020 nM	0.048	< 20 nM	0.911	> 10 µM	0.84	> 2000 nM	0.978	> 16 µM	0.716	81.1 nM	0.928	> 2560 nM	0.962	> 128 nM	0.803	8.82 nM	0.968	> 2000 nM	–	–	0.462	954 nM	–	–	0.935	> 20 µM
ALL-SIL (T-cell leukaemia, suspension)	0.98	> 1000 nM	0.607	300 nM	0.982	> 1020 nM	0.42	200 nM	–	–	0.675	355 nM	0.971	> 16 µM	0.763	80.2 nM	0.742	699 nM	0.619	16.2 nM	0.775	4.25 nM	0.936	> 2000 nM	0.987	> 10 µM	0.154	134 nM	0.986	> 2000 nM	0.847	11.7 µM
COR-L88 (small cell lung carcinoma, adherent)	0.983	> 1000 nM	0.955	> 2560 nM	0.985	> 1020 nM	–	–	0.941	> 10 µM	0.985	> 2000 nM	0.941	> 16 µM	0.872	> 256 nM	0.979	> 2560 nM	0.875	> 128 nM	0.952	> 12.5 nM	0.972	> 2000 nM	0.986	> 10 µM	0.39	585 nM	0.985	> 2000 nM	0.788	10.6 µM
H-EMC-SS (chondrosarcoma, adherent)	–	–	0.958	> 2560 nM	0.972	> 1020 nM	0.213	34.6 nM	0.922	> 10 µM	0.698	535 nM	0.981	> 16 µM	0.902	> 256 nM	0.84	> 2560 nM	0.932	> 128 nM	–	–	0.968	> 2000 nM	0.92	> 10 µM	0.762	9200 nM	0.829	1770 nM	0.816	15.5 µM
HL-60 (acute myeloid leukaemia, suspension)	–	–	–	–	0.985	> 1020 nM	0.022	< 20 nM	0.956	> 10 µM	0.732	527 nM	0.99	> 16 µM	0.798	108 nM	0.765	846 nM	0.823	65.2 nM	0.835	7.07 nM	0.99	> 2000 nM	0.98	> 10 µM	0.296	357 nM	0.988	> 2000 nM	0.852	13 µM
NCI-H716 (large intestine, suspension)	0.738	364 nM	0.909	> 2560 nM	0.981	> 1020 nM	0.754	2140 nM	0.932	> 10 µM	0.729	676 nM	0.98	> 16 µM	0.959	> 256 nM	0.944	> 2560 nM	0.85	> 128 nM	0.982	> 12.5 nM	0.97	> 2000 nM	–	–	0.587	2310 nM	–	–	0.961	> 20 µM
